Test results: PubChem BioAssay (NCATS)
“And” between values parts separate entries of the source, which are not always exact repeats. Identical values can stand only once. Inconclusive results, whose numbers are uncertain, are shown with a selection of clear calls. For part of these data: Potencies of inconclusive entries are doubtful fits and often do not repeat. For part of these data: “Side channel” marks fits to a control or component signal instead of the main read-out. The source made the active and inactive calls. Unless noted, the call rests on the fitted dose curve.

Experiments:
[1] = target: Estrogen receptor (Homo sapiens) (UniProt P03372); test: qHTS assay for small molecule agonists of estrogen receptor alpha signaling (AID 588514); settings: ER-alpha-UAS-bla HEK293, beta-lactamase ratio, 18 h; activation: at 76.8 µM (top of the series), percent of full estradiol response, vehicle zero unless noted; further: nearly all actives have a fitted effect of over 70% in size; further: potency means the concentration at half of the fitted maximal effect;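 on activation: 0% = vehicle only and 100% = reference agonist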
Method in brief: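 Read-out: CCF4 fluorescence from a beta-lactamase reporter in ER-alpha-UAS-bla HEK 293 cells after 18 hrs of compound exposure at 37 C. Normalized to 20 nM 17-beta-estradiol (100%) and DMSO (0%).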

[2] = target: Peroxisome proliferator-activated receptor delta (Homo sapiens) (UniProt Q03181); test: qHTS assay for small molecule agonists of peroxisome proliferator-activated receptor delta signaling (AID 588534); settings: HEK293T PPARdelta-UAS-bla, beta-lactamase ratio, 18 h; activation: at 76.7 µM (top of the series) unless noted; further: potency means the concentration at half of the fitted maximal effect;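 on activation: 0% = DMSO basal wells and 100% = positive control agonist at 10 µM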
Method in brief: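 Titration series tested in agonist mode on beta-lactamase reporter cells; 18 hrs at 37 C after a 5 hr pre-incubation. Readout: CCF4 fluorescence, 2 hrs RT. Hill equation gives EC50 and maximal response.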

[3] = target: Retinoic acid receptor RXR-alpha (Homo sapiens) (UniProt P19793); test: qHTS assay for small molecule agonists of retinoid X receptor alpha signaling (AID 588544); settings: HEK293T RXRa-UAS-bla, beta-lactamase reporter, 18 h; activation: at 76.7 µM (top of the series);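 further: 0% = DMSO basal wells and 100% = reference agonist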
[4] = target: Bile acid receptor (Homo sapiens) (UniProt Q96RI1); test: qHTS assay for small molecule antagonists of farnesoid X receptor signaling (AID 588526); settings: HEK293T FXR-UAS-bla, beta-lactamase ratio, antagonist mode; activity change, negative = inhibition: at 76.7 µM (top of the series); further: on the % scale 0 is the no-effect control and ±100 the full control effect
Method in brief: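 Beta-lactamase reporter antagonist mode: HEK293T FXR-UAS-bla cells, titrated compound, CDCA stimulation, 16 h 37 C, CCF4 dye 2 h RT. Data normalized to CDCA 50 uM and DMSO; Hill-fit IC50.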

[5] = target: Bile acid receptor (Homo sapiens) (UniProt Q96RI1); test: qHTS assay for small molecule agonists of farnesoid X receptor signaling (AID 588527); settings: HEK293T FXR-UAS-bla, beta-lactamase ratio, 16 h; activation: stronger effect = higher value; further: potency means the concentration at half of the fitted maximal effect
Method in brief: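 Read-out: beta-lactamase reporter fluorescence with CCF4 substrate in GeneBLAzer FXR-UAS-bla HEK293T cells, after 16 h compound exposure at 37 C. Response scaled between DMSO basal (0%) and chenodeoxycholic acid at 100 uM (100%).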

[6] = target: Peroxisome proliferator-activated receptor delta (Homo sapiens) (UniProt Q03181); test: qHTS assay for small molecule antagonists of peroxisome proliferator-activated receptor delta signaling (AID 588535; active means well fitted inhibition curve with a large enough effect in the signal ratio, with a control signal flat, not every such curve was filed as active; inconclusive means small, poorly fitted or top-dose-only effect, or effect the other way, or a change in a side signal; inactive means no such curve, though single readings can be large or run the other way; the % refers to the signal ratio; further: potency means the concentration at half of the fitted maximal effect); settings: HEK293T PPARd-UAS-bla, beta-lactamase FRET ratio, 18 h; activity change, negative = inhibition: at 76.7 µM (top of the series) unless noted
Method in brief: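 Antagonist-mode qHTS using GeneBLAzer PPAR-delta-UAS-bla HEK293T cells; compound exposure 18 hrs at 37 C over a titration. Ratiometric CCF4 fluorescence at 460/530 nm; concentration-response points fitted to the Hill equation.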

[7] = target: Peroxisome proliferator-activated receptor gamma (Homo sapiens) (UniProt P37231); test: qHTS assay for small molecule agonists of peroxisome proliferator-activated receptor gamma signaling (AID 588536; active means well fitted curve in the direction sought with a large enough effect in the signal ratio, with a control signal flat, not every such curve was filed as active; inconclusive means small, poorly fitted or top-dose-only effect, or effect the other way, or a change in a side signal; inactive means no such curve, though single readings can be large or run the other way; the % refers to the signal ratio;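 further: 0% = DMSO basal wells and 100% = rosiglitazone at 2 µM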); settings: HEK293 PPARg-UAS-bla, beta-lactamase ratio, 16 h; activation: at 76.7 µM (top of the series), percent of rosiglitazone response, DMSO as zero
Method in brief: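 Beta-lactamase reporter read-out: CCF4 fluorescence (ex 405, em 460/530 nm) after 2 h at RT. HEK293 GeneBLAzer cells were treated for 16 h at 37 C. Hill fits gave EC50 and efficacy versus 2 uM rosiglitazone (100%) and DMSO (0%).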

[8] = target: Peroxisome proliferator-activated receptor gamma (Homo sapiens) (UniProt P37231); test: qHTS assay for small molecule antagonists of peroxisome proliferator-activated receptor gamma signaling (AID 588537; active means well fitted inhibition curve with a large enough effect in the signal ratio, with a control signal flat, not every such curve was filed as active; inconclusive means small, poorly fitted or top-dose-only effect, or effect the other way, or a change in a side signal; the % refers to the signal ratio;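 further: reporter cells co-stimulated with 50 nM rosiglitazone agonist during compound treatment; % of control where 0% means no effect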); settings: HEK293 PPARg-UAS-bla, beta-lactamase ratio, antagonist mode; activity, negative = inhibition: at 76.8 µM (top of the series) unless noted
Method in brief: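 Cell-based beta-lactamase assay; GW9662 served as the antagonist control. Stimulation used rosiglitazone, final 50 nM, 16 h, 37 C.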

[9] = target: Retinoic acid receptor RXR-alpha (Homo sapiens) (UniProt P19793); test: qHTS assay for small molecule antagonists of retinoid X receptor alpha signaling (AID 588546; active means well fitted inhibition curve with a large enough effect in the signal ratio, with a control signal flat, not every such curve was filed as active; inconclusive means small, poorly fitted or top-dose-only effect, or effect the other way, or a change in a side signal; inactive means no such curve, though single readings can be large or run the other way; the % refers to the signal ratio;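 further: cells stimulated with 9-cis-retinoic acid as agonist; on the % scale 0 is the no-effect control and ±100 the full control effect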); settings: HEK293T RXRa-UAS-bla, beta-lactamase ratio, antagonist mode
Method in brief: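 Beta-lactamase reporter inhibition, read as CCF4 fluorescence ratio (ex 405, em 460/530 nm) after 2 h at RT. HEK293T UAS-bla cells, 2500/well, were stimulated with 9-cis-RA at 500 or 100 nM final alongside test compound for 18 h at 37 C.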

[10] = target: Thyroid hormone receptor beta (Homo sapiens) (UniProt P10828); test: qHTS assay for small molecule antagonists of thyroid hormone receptor beta signaling (AID 588547; active means well fitted inhibition curve with a large enough effect in the signal ratio, with a control signal flat, not every such curve was filed as active; inconclusive means small, poorly fitted or top-dose-only effect, or effect the other way, or a change in a side signal; the % refers to the signal ratio; further: potency means the concentration at half of the fitted maximal effect); settings: TR-UAS-bla HEK293, beta-lactamase ratio, antagonist mode, 18 h
Method in brief: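 Inhibition of T3-driven (0.4nM final) beta-lactamase reporter activity was measured over 0.59 nM to 92 uM compound after 18 h at 37 C. The cells were GripTite HEK293 TR-UAS-bla in charcoal/dextran-stripped serum, with CCF4 ratio read-out and IC50 from Hill fits.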

[11] = qHTS assay for small molecule agonists of the antioxidant response element (ARE) signaling pathway (AID 651741; active means well fitted activation curve with a large enough effect in the signal ratio; inconclusive means small, poorly fitted or top-dose-only effect, or effect the other way, or a change in a side signal; the % refers to the signal ratio; further: potency means the concentration at half of the fitted maximal effect; on activation: % of control where 0% means no effect); settings: HepG2 ARE-bla reporter, beta-lactamase FRET ratio, 16 h; activation: at 96 µM (top of the series) unless noted
Method in brief: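 Agonist activity is measured as ARE-driven beta-lactamase expression in a stable HepG2 reporter line, using 16 h compound treatment at 37 C and a FRET substrate fluorescence readout after 2 h.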

[12] = target: Glucocorticoid receptor (Homo sapiens) (UniProt P04150); test: qHTS assay for small molecule antagonists of glucocorticoid receptor signaling (AID 588533; active means well fitted inhibition curve with a large enough effect in the signal ratio, with a control signal flat, not every such curve was filed as active; inconclusive means small, poorly fitted or top-dose-only effect, or effect the other way, or a change in a side signal; the % refers to the signal ratio;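 further: cells stimulated with 2 nM dexamethasone as agonist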; further: potency means the concentration at half of the fitted maximal effect; on activity change, negative = inhibition: on the % scale 0 is the no-effect control and ±100 the full control effect); settings: HeLa MMTV-bla, GRE beta-lactamase ratio, antagonist mode, 18 h; activity change, negative = inhibition: at 76.8 µM (top of the series)
[13] = target: Androgen receptor (Homo sapiens) (UniProt P10275); test: qHTS assay for small molecule antagonists of androgen receptor signaling (AID 588516; active means well fitted curve in the direction sought with a large enough effect in the signal ratio, with a control signal flat, not every such curve was filed as active; inconclusive means small, poorly fitted or top-dose-only effect, or effect the other way, or a change in a side signal; inactive means no such curve, though single readings can be large or run the other way; the % refers to the signal ratio; further: on the % scale 0 is the no-effect control and ±100 the full control effect); settings: AR-UAS-bla HEK293, beta-lactamase ratio, antagonist mode, 16 h; activity change, negative = inhibition: at 76.8 µM (top of the series)
Method in brief: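 Cells were plated and incubated 5 h, compounds added in titration, then R1881 (10 nM final) as agonist. After 16 h at 37 C, CCF4 substrate was loaded for 2 h at room temperature and fluorescence measured.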

[14] = Cellular Toxicity (caspase-3) NIH 3T3 (AID 666; active means well fitted curve in the direction sought with a large enough effect; inconclusive means small, poorly fitted or top-dose-only effect, or another doubt; inactive means no such curve, though single readings can be large; an effect the other way counts as inactive or inconclusive;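 further: caspase signal read after 16 h compound exposure; 0% = DMSO basal and 100% = 100 µM tamoxifen stimulation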)
Method in brief: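 NIH 3T3, 1000 cells/well, 5 hr settle then 16 hr compound at 37°C; Caspase-Glo 3/7, 20 min RT, luminescence. DMSO = basal, 100 uM tamoxifen = 100%. Hill-equation AC50, qHTS.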

[15] = Cell Viability - LYMP2-001 (AID 921; active means well fitted curve in the direction sought with a large enough effect; inconclusive means small, poorly fitted or top-dose-only effect, or another doubt; inactive means no such curve, though single readings can be large; an effect the other way counts as inactive or inconclusive;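 further: 0% = DMSO only and full inhibition = tetraoctylammonium bromide control wells; nearly all actives have a fitted effect of over 70% in size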); settings: LYMP2-001 lymphoblastoid cell viability; activity change, negative = cytotoxic: at 92.2 µM (top of the series)
Method in brief: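 Cellular ATP loss read by luciferase luminescence after 24 h compound exposure at 37 C in complete medium. LYMP2-001 lymphoblastoid cells, 2500/well; qHTS concentration-response data fitted with Hill equation for AC50.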

[16] = Cell Viability - LYMP2-005 (AID 967; active means well fitted curve in the direction sought with a large enough effect; inconclusive means small, poorly fitted or top-dose-only effect, or another doubt; inactive means no such curve, though single readings can be large; an effect the other way counts as inactive or inconclusive; further: potency means the concentration at half of the fitted maximal effect)
Method in brief: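 LYMP2-005 human lymphoblastoid cells (2500/well) were treated with compounds for 24 h at 37 C. Intracellular ATP was then measured by CellTiter-Glo luminescence after 30 min at room temperature. AC50 values came from Hill-equation fits of qHTS concentration-response data.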

[17] = target: Thyroid hormone receptor beta (Homo sapiens) (UniProt P10828); test: qHTS assay for small molecule agonists of thyroid hormone receptor beta signaling (AID 588545); settings: TR-UAS-bla GripTite HEK 293, beta-lactamase ratio, agonist mode, 18 h; activation: at 76.7 µM, percent of T3 response, DMSO as zero; further: potency means the concentration at half of the fitted maximal effect;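 on activation: 0% = DMSO only and 100% = 10 nM T3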
Method in brief: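 Beta-lactamase reporter activity under TR response element control is measured in HEK 293 cells after 18 hrs compound exposure. Signal is ratiometric CCF4 fluorescence, 460/530 nm.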

[18] = qHTS assay to identify small molecules that stimulate interleukin-8 (IL-8) secretion (AID 651758; active means well fitted activation curve with a large enough effect in the signal ratio; inconclusive means small, poorly fitted or top-dose-only effect, or effect the other way, or a change in a side signal; the % refers to the signal ratio; further: 0% is about no effect); settings: HTRF ratio (665/615); activation: at 92.2 µM (top of the series)
Method in brief: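 Secreted IL-8 measured homogeneously by TR-FRET (two labelled anti-IL-8 antibodies, 1-3 h at room temperature) after a 16 h, 37 C compound treatment of THP-1 cells at 2000 cells/well.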

[19] = MultiTox-Fluor Cytotoxicity Assay - LYMP1-002 - Dead Cells (AID 960; active means well fitted curve in the direction sought with a large enough effect; inconclusive means small, poorly fitted or top-dose-only effect, or another doubt; inactive means no such curve, though single readings can be large; an effect the other way counts as inactive or inconclusive; further: potency means the concentration at half of the fitted maximal effect; nearly all actives have a fitted effect of over 60% in size); settings: LYMP1-002 lymphoblastoid cells, dead-cell protease fluorescence; cytotoxicity (dead cells): at 46.1 µM (top of the series)
Method in brief: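 Readout: fluorescence at 485/520 from cell-impermeant bis-AAF-R110 cleaved by proteases leaking from damaged cells. LYMP1-002 lymphoblastoid line, 16 hr compound treatment at 37 C, concentration-response in qHTS format; Hill-equation AC50 values.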

[20] = Cell Viability - LYMP2-012 (AID 982; active means well fitted curve in the direction sought with a large enough effect; inconclusive means small, poorly fitted or top-dose-only effect, or another doubt; inactive means no such curve, though single readings can be large; an effect the other way counts as inactive or inconclusive;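 further: cellular ATP by luciferase luminescence where a drop means cytotoxicity; cells exposed to compound for one day before reading; 0% = DMSO only and full loss = 92 µM tetraoctylammonium bromide; nearly all actives have a fitted effect of over 55% in size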); settings: LYMP2-012 lymphoblastoid cell viability qHTS; activity change, negative = cytotoxicity: at 92.2 µM (top of the series)
[21] = Cell Viability - LYMP1-002 - Assay at 40 hr (AID 994; active means well fitted curve in the direction sought with a large enough effect; inconclusive means small, poorly fitted or top-dose-only effect, or another doubt; inactive means no such curve, though single readings can be large; an effect the other way counts as inactive or inconclusive;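 further: 0% = DMSO only and full inhibition = 92 µM tetraoctylammonium bromide; nearly all actives have a fitted effect of over 60% in size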); settings: LYMP1-002 lymphoblastoid cell viability; at 92.2 µM (top of the series)
Method in brief: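 qHTS cytotoxicity; 2500 cells/well, 5 hr 37 C settle, compound 40 hr 37 C. CellTiter-Glo, 30 min RT, luminescence (ATP). Concentration-response, Hill fit → AC50. Pos. ctrl tetraoctylammonium bromide.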

[22] = target: Glucocorticoid receptor (Homo sapiens) (UniProt P04150); test: qHTS assay for small molecule agonists of glucocorticoid receptor signaling (AID 588532; active means well fitted curve in the direction sought with a large enough effect in the signal ratio, with a control signal flat; inconclusive means small, poorly fitted or top-dose-only effect, or a change in a side signal; inactive means no such curve, though single readings can be large or run the other way; the % refers to the signal ratio; further: potency means the concentration at half of the fitted maximal effect;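 on activation: 100% = dexamethasone at 0.1 µM and 0% = DMSO only wells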); settings: HeLa MMTV-bla, beta-lactamase ratio, agonist, 18 h; activation: stronger effect = higher value, percent of dexamethasone control, DMSO zero
Method in brief: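 Quantitative HTS using CellSensor MMTV-bla HeLa cells in charcoal/dextran-treated serum; compounds tested up to 92 uM. After 18 h at 37 C, CCF4 dye reported reporter induction.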

[23] = qHTS assay for small molecule activators of the nuclear factor-kappa B (NF-kB) signaling pathway (AID 651749; active means well fitted activation curve with a large enough effect in the signal ratio; inconclusive means small, poorly fitted or top-dose-only effect, or a change in a side signal; the % refers to the signal ratio; further: % of control where 0% means no effect); settings: NF-kB-bla ME-180 cells, beta-lactamase FRET ratio, 16 h; activation: stronger effect = higher value
Method in brief: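 FRET-based beta-lactamase detection in ME-180 cells reports NF-kB response-element-driven transcription following overnight (16 hr) compound treatment.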

[24] = qHTS assay for small molecule activators of the p53 signaling pathway (AID 651743; active means well fitted activation curve with a large enough effect in the signal ratio, not every such curve was filed as active; inconclusive means small, poorly fitted or top-dose-only effect, or a change in a side signal; the % refers to the signal ratio; further: % of control where 0% means no effect); settings: HCT-116 p53RE-bla, beta-lactamase FRET ratio, 16 h; activation: stronger effect = higher value
Method in brief: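 A beta-lactamase reporter under p53 response element control, stably carried by HCT-116 cells, reported pathway activation. Test compounds were applied for 16 hours at 37 C, and fluorescence was measured 2 hours after adding the B/G FRET substrate.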
Tags describe the fitted curve by direction and shape or compound fluorescence and quenching.

Sequence of UniProt P19793 (P19793 whole entry, looked up): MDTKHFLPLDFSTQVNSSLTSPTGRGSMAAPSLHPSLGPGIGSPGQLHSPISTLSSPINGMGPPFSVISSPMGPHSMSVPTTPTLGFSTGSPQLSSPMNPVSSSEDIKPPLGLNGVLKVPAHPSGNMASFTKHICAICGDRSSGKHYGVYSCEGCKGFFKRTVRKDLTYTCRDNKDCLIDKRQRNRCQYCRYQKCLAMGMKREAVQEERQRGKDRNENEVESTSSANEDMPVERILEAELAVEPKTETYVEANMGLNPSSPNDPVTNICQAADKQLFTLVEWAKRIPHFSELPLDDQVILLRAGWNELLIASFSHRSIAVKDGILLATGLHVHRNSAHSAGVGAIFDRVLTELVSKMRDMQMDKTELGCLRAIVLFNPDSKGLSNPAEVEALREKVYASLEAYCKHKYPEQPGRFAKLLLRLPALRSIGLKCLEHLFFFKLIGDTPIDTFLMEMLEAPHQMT
Sequence of UniProt P03372 (P03372 whole entry, looked up): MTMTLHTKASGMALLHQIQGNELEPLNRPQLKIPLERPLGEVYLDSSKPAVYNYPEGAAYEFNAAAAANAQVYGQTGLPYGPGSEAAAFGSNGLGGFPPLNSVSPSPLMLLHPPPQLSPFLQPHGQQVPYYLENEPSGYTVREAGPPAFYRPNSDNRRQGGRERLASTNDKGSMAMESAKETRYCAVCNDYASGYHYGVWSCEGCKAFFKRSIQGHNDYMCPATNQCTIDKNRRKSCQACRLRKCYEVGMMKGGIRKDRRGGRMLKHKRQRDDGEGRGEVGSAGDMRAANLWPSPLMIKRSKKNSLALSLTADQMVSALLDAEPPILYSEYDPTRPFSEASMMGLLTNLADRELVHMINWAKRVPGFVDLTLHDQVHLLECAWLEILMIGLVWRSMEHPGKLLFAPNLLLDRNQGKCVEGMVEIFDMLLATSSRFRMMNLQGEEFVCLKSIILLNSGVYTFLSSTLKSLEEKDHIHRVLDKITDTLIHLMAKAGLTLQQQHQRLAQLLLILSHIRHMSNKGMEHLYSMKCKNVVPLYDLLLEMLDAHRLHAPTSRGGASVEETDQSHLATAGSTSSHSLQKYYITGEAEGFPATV
Sequence of UniProt Q03181 (Q03181 whole entry, looked up): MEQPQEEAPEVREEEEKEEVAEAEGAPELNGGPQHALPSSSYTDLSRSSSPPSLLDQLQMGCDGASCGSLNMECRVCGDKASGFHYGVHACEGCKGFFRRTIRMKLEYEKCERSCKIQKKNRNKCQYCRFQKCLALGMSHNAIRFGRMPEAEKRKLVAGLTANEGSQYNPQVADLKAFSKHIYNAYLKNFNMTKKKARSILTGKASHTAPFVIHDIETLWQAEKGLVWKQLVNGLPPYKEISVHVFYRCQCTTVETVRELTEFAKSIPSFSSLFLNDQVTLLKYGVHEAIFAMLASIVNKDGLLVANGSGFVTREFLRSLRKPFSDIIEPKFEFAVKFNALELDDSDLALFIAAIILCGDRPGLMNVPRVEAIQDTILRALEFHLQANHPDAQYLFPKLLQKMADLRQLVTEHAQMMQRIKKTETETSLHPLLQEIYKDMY
Sequence of UniProt P10828 (P10828 whole entry, looked up): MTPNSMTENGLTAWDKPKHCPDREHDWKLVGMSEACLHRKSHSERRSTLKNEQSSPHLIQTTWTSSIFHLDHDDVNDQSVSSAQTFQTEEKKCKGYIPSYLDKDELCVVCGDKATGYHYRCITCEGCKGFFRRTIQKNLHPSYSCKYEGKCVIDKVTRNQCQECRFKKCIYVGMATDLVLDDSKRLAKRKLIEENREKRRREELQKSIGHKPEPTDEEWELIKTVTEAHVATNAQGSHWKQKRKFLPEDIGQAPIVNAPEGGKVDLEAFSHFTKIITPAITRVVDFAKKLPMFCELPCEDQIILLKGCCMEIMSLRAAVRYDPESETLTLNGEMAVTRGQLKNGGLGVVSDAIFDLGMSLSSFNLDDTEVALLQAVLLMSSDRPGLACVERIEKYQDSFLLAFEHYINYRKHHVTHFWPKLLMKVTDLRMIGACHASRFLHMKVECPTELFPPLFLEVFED
Sequence of UniProt P10275 (P10275 whole entry, looked up): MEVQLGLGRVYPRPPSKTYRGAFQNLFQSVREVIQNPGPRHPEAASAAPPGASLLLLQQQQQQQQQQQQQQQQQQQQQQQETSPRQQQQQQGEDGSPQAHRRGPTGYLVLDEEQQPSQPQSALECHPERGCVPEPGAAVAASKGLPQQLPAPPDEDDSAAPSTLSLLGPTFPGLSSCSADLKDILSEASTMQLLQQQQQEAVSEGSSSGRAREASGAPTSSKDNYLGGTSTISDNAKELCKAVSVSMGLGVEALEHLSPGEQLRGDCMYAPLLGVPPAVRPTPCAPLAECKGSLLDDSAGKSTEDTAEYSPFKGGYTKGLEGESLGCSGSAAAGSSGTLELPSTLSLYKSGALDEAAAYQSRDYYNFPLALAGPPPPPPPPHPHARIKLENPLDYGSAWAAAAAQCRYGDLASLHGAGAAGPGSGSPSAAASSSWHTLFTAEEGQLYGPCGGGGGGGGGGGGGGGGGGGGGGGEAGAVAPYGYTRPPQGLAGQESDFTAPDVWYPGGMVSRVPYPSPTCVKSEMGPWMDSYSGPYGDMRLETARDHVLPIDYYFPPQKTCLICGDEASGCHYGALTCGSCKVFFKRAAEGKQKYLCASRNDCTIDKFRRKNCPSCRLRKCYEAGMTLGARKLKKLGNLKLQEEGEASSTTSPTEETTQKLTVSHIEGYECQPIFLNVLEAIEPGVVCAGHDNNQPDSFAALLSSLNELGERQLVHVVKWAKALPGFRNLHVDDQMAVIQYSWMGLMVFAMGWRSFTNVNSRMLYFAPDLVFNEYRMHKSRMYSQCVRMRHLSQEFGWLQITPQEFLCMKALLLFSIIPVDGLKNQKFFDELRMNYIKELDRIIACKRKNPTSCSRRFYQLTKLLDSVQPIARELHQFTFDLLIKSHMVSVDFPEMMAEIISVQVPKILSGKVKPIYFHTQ

CCCCCc1ccc(N)cc1
inconclusive: activation [1] 76%
inactive: Potency [2] | Potency [3]

CCOC(=O)C1=NN(c2ccc(Cl)cc2Cl)C(C)(C(=O)OCC)C1 (stereo unspecified)
inactive: Potency [1] | Potency [2] | Potency [11]
inconclusive: activity change, negative = inhibition [4] -27.1% | Potency [5] 44.7 µM [activator, partial curve, poor fit] | activity change, negative = inhibition [6] 7.56% | activation [7] -13.1% | activity, negative = inhibition [8] -29.7% | max response [9] -23.5% | Potency [10] 0.0178 µM [cytotoxic, side channel, full curve, poor fit]

CSC(=O)c1cccc2nnsc12
inconclusive: activation [1] 19.6% | activity change, negative = inhibition [12] -1.53% | activity change % (negative = inhibition) [10] -16.9%
inactive: Potency [8]

CCCCCCCCCCCCCCCCN(C)C
inconclusive: activation [1] 56.1% | activity change, negative = inhibition [4] -14.2% | Potency [10] 7.94 µM [cytotoxic, side channel, partial curve, poor fit]
inactive: Potency [13] | Potency [11]

CNC(=O)c1ccccc1
inconclusive: activity change, negative = inhibition [12] -26.3% | activation [17] -28.2% | activation [18] -10.5%
inactive: Potency [14] | Potency [15] | Potency [16] | Potency [1] | Potency [8] | Potency [11]

CCCCCCCCO
inconclusive: Potency [19] 15.8 µM [cytotoxic, partial curve, poor fit] | Potency [16] 6.31 µM [cytotoxic, single point] | activation [1] -1.1% [at 2.03 mM, percent of full estradiol response, vehicle zero] | Potency [22] 12.6 µM [side channel, falling, partial curve, poor fit] | activity change, negative = inhibition [6] 21.8% [at 2.03 mM] | Potency [17] 14.1 µM [side channel, falling, full curve, poor fit] | activation [17] -33.3% | activation [18] 27.6%
inactive: Potency [20] | viability change, negative = cytotoxic [21] -5.68% | activation [22] -2.22% and -1.08%

CCCOC(=O)c1ccc(C(=O)OCCC)nc1
inconclusive: Potency [1] 15.8 µM [side channel, rising, single point] | Potency [5] 12.6 µM [side channel, rising, single point] | Potency [12] 14.1 µM [activator, single point] | Potency [2] 12.6 µM [side channel, rising, full curve] | Potency [6] 5.62 µM [fluorescent, side channel, full curve, poor fit] | Potency [17] 22.4 µM [side channel, rising, partial curve] | Potency [10] 20 µM [fluorescent, side channel, partial curve]
inactive: Potency [13] | Potency [8]

Fc1ccc(Br)cc1
inconclusive: activation [7] 13.1% | activity change % (negative = inhibition) [10] 0.26% | Potency [11] 61.1 µM [activator, partial curve]
inactive: Potency [1] | Potency [12] | Potency [8] | Potency [3] | activation [23] 1.17%

COc1ccccc1NC(=O)CC(C)=O
inactive: Potency [6] | Potency [11] | activation [24] -7.86%
inconclusive: activation [1] 73.7% | Potency [2] 12.6 µM [side channel, rising, partial curve, poor fit] | activity, negative = inhibition [8] 3.26% | Potency [17] 0.0089 µM [side channel, falling, full curve, poor fit]
